# Assay results reported in PubChem BioAssay AID624296 (National Center for Advancing Translational Sciences (NCATS), 2012).
# The whole screen tested about 350,000 compounds, of which about 9,900 (2.8%) were called active. This list was built around the results that the source calls inconclusive (neither active nor inactive); the mix of calls is not that of the screen. Calls follow the shape of the dose curve; as a rule, active = well fitted activation curve with a large enough effect; inconclusive = small, poorly fitted or top-dose-only effect; inactive = no such curve, though single readings can be large or run the other way. Potencies of inconclusive entries are left out as doubtful fits.
# Assay: A quantitative high throughput screen for small molecules that induce DNA re-replication in MCF 10a normal breast cells. Also: nearly all actives have a fitted effect of over 50% in size. As to activity, positive = re-replication: % of control where 0% means no effect.
# Settings: MCF 10A DNA re-replication, Hoechst nuclear intensity, 48 h; activity, positive = re-replication: at 46.1 µM (top of the series)
# Potency is read from the fitted curve at half-maximal effect; tags tell the direction and shape of the fitted curve.
SMILES,"activity, positive = re-replication",Potency
CN(C(=O)COC(=O)c1cn(C)c2ccccc12)C1CCCCC1,inactive: 5.86%,–
CC1=NCCc2c1[nH]c1cc(O)ccc21,–,"inconclusive [activator, single point]"
FC(F)=C(F)CCSc1ncn[nH]1,–,"inconclusive [activator, single point]"
CN1CCC(N(C)c2nc(-c3ccc([N+](=O)[O-])cc3)nc3ccccc23)CC1,inactive: 24.1%,–
COC(=O)C[C@](O)(CCCC(C)(C)O)C(=O)O[C@@H]1C(OC)=C[C@]23CCCN2CCc2cc4c(cc2[C@H]13)OCO4,–,"inconclusive [activator, full curve, poor fit]"
C=CCn1c(O)c(C(CC)=NC(C)c2ccccc2)c(=O)[nH]c1=O (centres undefined),–,"inconclusive [activator, partial curve, poor fit]"
[O]=[Cd],inactive: -1.05%,–
CCOC(=O)c1c(/N=C/c2c(O)n(-c3ccccc3F)c(=S)[nH]c2=O)sc2c1CCCC2,–,"inconclusive [activator, single point]"
Clc1cnc(Oc2ccc(Oc3ncc(Cl)cc3Cl)cc2)c(Cl)c1,–,"inconclusive [activator, full curve]"
OC(c1cccc(Cl)c1)(c1cccc(Cl)c1)C1CN2CCC1CC2 (centres undefined),–,"inconclusive [activator, single point]"
C/C(=N\N1CCCCC1c1cccnc1)c1c(O)n(C2CCCCC2)c(=S)[nH]c1=O (centres undefined),–,"inconclusive [activator, single point]"
CC(C)CCn1c(=O)c(C(=O)Nc2ccccc2S(N)(=O)=O)c(O)c2ccccc21,–,"inconclusive [activator, single point]"
COc1cccc(-n2c(/C=C/c3ccccn3)nc3ccccc3c2=O)c1,–,"inconclusive [activator, single point]"
CC12CN3CCN(C1)CC(C)(C3)C2=NN,–,"inconclusive [activator, partial curve, poor fit]"
C=CCn1c(=O)c(C=Nc2c(OC)cccc2[N+](=O)[O-])c(O)n(CCCC)c1=O,–,active: 7.31 µM
COC[C@H]1OC(=O)c2coc3c2[C@@]1(C)C1=C(C3=O)[C@@H]2CCC(=O)[C@@]2(C)C[C@H]1OC(C)=O,–,"inconclusive [activator, partial curve]"
CCN1C(=O)/C(=C2\C=Cc3ccccc3N2CC)OC1=S,–,"inconclusive [activator, single point]"
COc1ccc(N=C(C)c2c(O)[nH]c(=O)[nH]c2=O)cc1,–,"inconclusive [activator, single point]"
COc1cc(CN=C(C)c2c(O)n(C3CCCCC3)c(=O)[nH]c2=O)cc(OC)c1,inactive: 2.92%,–
Cc1ccc(-c2csc(NC(CO)c3nc4ccccc4n3CCOCCO)n2)cc1 (centres undefined),–,"inconclusive [activator, single point]"
O=C(COc1ccc(Cl)cc1Cl)N1CCN(C/C=C/c2ccccc2)CC1,–,"inconclusive [activator, single point]"
O=C(Cn1ncc2c3ccccc3n(Cc3cccc(Cl)c3)c2c1=O)N1CCC2(CC1)OCCO2,–,"inconclusive [activator, partial curve]"

SMILES,"activity, positive = re-replication",Potency
CNC(=O)O/N=C(\N)Cc1csc2ccccc12,–,"inconclusive [activator, single point]"
Cc1ccc(C2=CCNCC2)cc1,–,"inconclusive [activator, single point]"
CN1[C@@H]2CC(OC(=O)[C@H](CO)c3ccccc3)C[C@H]1[C@@H]1O[C@@H]12 (some centres undefined),–,"inconclusive [activator, partial curve, poor fit]"
O=c1cccc2n1CC1CC2CN(Cc2c(F)cccc2Cl)C1 (centres undefined),inactive: 21.7%,–
CCOC(=O)C(=CNc1ccc(C(O)(C(=O)OCC)C(F)(F)F)cc1C)C(=O)OCC (centres undefined),–,"inconclusive [activator, partial curve, poor fit]"
Cc1nn(-c2ccccc2)c2c1C(c1ccc(F)cc1F)C(C#N)=C(N)O2 (centres undefined),–,"inconclusive [activator, single point]"
C=C1CC2C(CC[C@]3(C)C(=O)CCC23)[C@]2(C)C=CC(=O)C=C12 (some centres undefined),inactive: 21.1%,–
Cc1cc(Oc2cc(NN3CCCCC3)c([N+](=O)[O-])cc2[N+](=O)[O-])ccc1[N+](=O)[O-],inactive: -18.1%,–
O=C(c1ccc2c(c1)OCO2)C1CCCN(Cc2ccc(F)c(F)c2)C1 (centres undefined),–,"inconclusive [activator, single point]"
COc1ccc(OC)c(CC(=O)O)c1,inactive: -2.76%,–
Cc1[nH]c2ccc(OCc3ccccc3)cc2c1CCN,inactive: 2.19%,–
Cc1cc2c(s1)Nc1ccccc1N=C2N1CCN(C)CC1,–,"inconclusive [activator, full curve, poor fit]"
O=[N+]([O-])/C=C/c1c(Cl)cccc1Cl,–,active: 3.66 µM
CC/C(=N\Nc1ccccc1)c1c(O)n(-c2ccc(OC)cc2)c(=O)[nH]c1=O,–,"inconclusive [activator, single point]"
CCOc1cc2c(cc1OCC)-n1cccc1C(c1ccc(OC)c(OC)c1)NC2 (centres undefined),–,"inconclusive [activator, full curve, poor fit]"
O=C(O)C1C2c3ccccc3C(c3ccccc32)C1C(=O)Nc1ccccc1 (centres undefined),inactive: 10.9%,–
CCOC(=O)CSCCOc1ccc(C=C2C(=O)NC(=O)NC2=O)cc1OC,–,"inconclusive [activator, single point]"
COc1ccc(CNC(=O)CCC(=O)N2C[C@H]3C[C@H](C2)c2cccc(=O)n2C3)cc1OC,–,"inconclusive [activator, full curve, poor fit]"
C[C@@H]1CN([C@H](C)CO)C(=O)c2cc(NC(=O)Nc3ccc(C(F)(F)F)cc3)ccc2O[C@H]1CN(C)S(=O)(=O)c1cccs1,inactive: -72.4%,–
CC12CC[C@H]3[C@@H](CCC4(O)C[C@H](O)CCC34/C=N/NC(=O)Cc3ccccc3)C1(O)CCC2C1=CC(=O)OC1 (some centres undefined),inactive: 16.5%,–
O=C1CC(=O)N(Cc2ccccc2)C(=O)N1,inactive: -1.97%,–
CN(C)c1nn(C(=O)Nc2cccc(C(F)(F)F)c2)cc1-c1ccccc1,–,"inconclusive [activator, single point]"

SMILES,"activity, positive = re-replication",Potency
ClC(Cl)(Cl)c1ccccc1,–,"inconclusive [activator, full curve, poor fit]"
S=C1Nc2ccccc2Sc2ccccc21,–,"inconclusive [activator, single point]"
O=C1CC(N2CC=C(c3ccccc3)CC2)C(=O)N1c1ccc(F)cc1 (centres undefined),inactive: 9.44%,–
CCOC(=O)c1cnc(N2CC2)nc1N,–,"inconclusive [activator, single point]"
O=c1[nH]c(=O)n(CCc2ccc(F)cc2)c(O)c1C=NCc1ccc2c(c1)OCO2,–,"inconclusive [activator, single point]"
COc1ccc(CN2CCN(Cc3ccccc3)CC2)c(OC)c1,–,"inconclusive [activator, partial curve, poor fit]"
COc1cc2c(cc1O)[C@@H]1Cc3ccc(OC)c(O)c3CN1CC2,–,"inconclusive [activator, full curve, poor fit]"
Cc1onc(-c2ccccc2Cl)c1C(=O)OCC(=O)c1ccc2c(c1)OCCO2,–,"inconclusive [activator, full curve, poor fit]"
O=C(c1ccc(Cl)cc1)C1CCCN(Cc2ccc3ncccc3c2)C1 (centres undefined),–,"inconclusive [activator, full curve, poor fit]"
Clc1ccc2c(c1)C(OC1CN3CCC1CC3)c1ccccc1CS2 (centres undefined),–,"inconclusive [activator, single point]"
C/C(=C\c1csc(C)n1)[C@@H]1C[C@@H]2O[C@]2(C)CCC[C@H](C)[C@H](O)[C@@H](C)C(=O)C(C)(C)[C@@H](O)CC(=O)O1,inconclusive: 40.6% [activator],–
CC(Cc1ccc(O)cc1)NCC(O)c1cc(O)cc(O)c1 (centres undefined),–,"inconclusive [activator, full curve, poor fit]"
COc1cc(C2c3cc4c(cc3CC3COC(=O)C32)OCO4)cc(OC)c1OC (centres undefined),–,active: 6.51 µM
CN1CCN(C(=S)SCC(=O)Nc2ccc(Cl)cc2C(=O)c2ccccc2)CC1,–,"inconclusive [activator, single point]"
Cc1ccc(S(=O)(=O)N2CCCCC2)cc1NC(=O)CSc1ncnc2ccccc12,–,"inconclusive [activator, partial curve, poor fit]"
Cc1ccccc1-c1ccc2n1Cc1cnnn1-c1ccccc1-2,–,"inconclusive [activator, single point]"
CN1CCCC(C(=O)c2ccc(Cl)cc2)C1 (centres undefined),–,"inconclusive [activator, full curve, poor fit]"
C/C(N)=C(/C#N)C(=O)CSc1nc2cc(Cl)ccc2c(=O)n1-c1ccc(C)cc1,–,"inconclusive [activator, single point]"
COC(=O)C1=C(c2ccc(F)cc2OCc2ccccc2)C[C@@H]2CC[C@H]1N2C(=O)NCc1ccccc1C(F)(F)F,–,"inconclusive [activator, partial curve, poor fit]"
C/C1=C\[C@@H](C)C/C=C/[C@H]2[C@@H]3O[C@]3(C)[C@@H](C)[C@H]3[C@H](Cc4c[nH]c5ccccc45)NC(=O)[C@]32C(=O)/C=C/C(=O)[C@@H]1O,–,active: 0.731 µM
